Experimental data reported in PubChem BioAssay AID540267 (National Center for Advancing Translational Sciences (NCATS), 2011).
Out of some 340,000 compounds screened, about 530 (0.16%) were called active. Inconclusive means that the source gave no clear call. Such entries were picked first, then a sample of the others. Rule as the data show it: active = activity change below about -80%; inconclusive = between about -30% and that limit; inactive = weaker than that.

Assay: Small Molecules that selectively kill Giardia lamblia: qHTS;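 also: parasites exposed to compound for two days anaerobically before the ATP read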
Settings: Giardia lamblia trophozoite viability; at 7.66 µM; stronger effect = lower value
Summary of the method: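 Killing of trophozoites was scored by loss of ATP luminescence after a 48 hrs anaerobic exposure to compounds at 37 deg C, using 100 cells per well.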
% is scaled to controls: 0 for no effect and ±100 for the full control effect.

Row | Structure (SMILES) | activity change
1 | Cc1cc(N=Nc2c(O)c3ccccc3[nH]c2=O)ccc1N=Nc1ccc(C(=O)N(C)C)cc1 | inactive: -1.05%
2 | Cc1cnc(CN2CCc3c([nH]c4ccccc34)C2C2CCCCC2)[nH]1 (centres undefined) | inconclusive: -38.4% [inhibitor]
3 | CCOc1nc(-c2ccccc2)c2cc(C)ccc2n1 | inconclusive: -31.6% [inhibitor]
4 | O=C(NC(=S)NCC1CCCO1)c1ccccc1Br (centres undefined) | inconclusive: -40.4% [inhibitor]
5 | CCO[C@@H]1OC(C(=O)N2CCN(C)CC2)=C[C@H](c2ccc(C(F)(F)F)cc2)[C@H]1CCCO | inconclusive: -32.4% [inhibitor]
6 | Cc1cc(C(=O)C(=O)O)c(C)n1-c1ccc(Cl)cc1 | inconclusive: -32% [inhibitor]
7 | CCOC(=O)c1ccc2nc(NC(=O)c3ccco3)sc2c1 | inconclusive: -33.6% [inhibitor]
8 | CCCC1(C(=O)OC)NC(c2ccc(OC)c(OC)c2)C2C(=O)N(c3cccc(C(C)=O)c3)C(=O)C21 (centres undefined) | inactive: 30.3%
9 | O=C1NC(=Nc2ccccc2)/C(=C/c2ccco2)S1 | inconclusive: -39% [inhibitor]
10 | Cc1cn(CC(=O)N[C@H](C)c2cccc3ccccc23)c(=O)[nH]c1=O | inconclusive: -33% [inhibitor]
11 | O=C(Nc1ccc(Cl)cc1C(=O)N1CCCC1)c1cccc([N+](=O)[O-])c1 | inactive: -4.91%
12 | O=C(NC(=O)c1cc(OCC(F)(F)F)ccc1OCC(F)(F)F)Nc1ccccc1 | inconclusive: -32.4% [inhibitor]
13 | COCC(=O)Nc1nnc(-c2ccc(C(C)(C)C)cc2)s1 | inconclusive: -32.2% [inhibitor]
14 | CN1CCN(C(=O)c2cccc(-c3cc(O)c4ncccc4c3)c2)CC1 | inconclusive: -32.9% [inhibitor]
15 | Cc1ccc(S(=O)(=O)N(CC(=O)NCC2CCCO2)Cc2ccc(F)cc2)cc1 (centres undefined) | inconclusive: -32.5% [inhibitor]
16 | Cc1noc(C)c1NC(=O)N(C)C[C@H]1Oc2ccc(NC(=O)CCC(F)(F)F)cc2C(=O)N([C@H](C)CO)C[C@@H]1C | inconclusive: -31.9% [inhibitor]
17 | COc1ccc(OC)c(/C=C/C(=O)OCC(=O)NC2CCCCCCC2)c1 | inconclusive: -33.3% [inhibitor]
18 | Cc1noc(C)c1C(c1ccccc1)S(=O)(=O)c1ccccc1 (centres undefined) | inactive: -0.861%
19 | CCC(C)N1CCN(S(=O)(=O)c2ccc3ccccc3c2)CC1 (centres undefined) | inconclusive: -38.2% [inhibitor]
20 | Cc1nn(-c2ccc(F)cc2F)c(=O)c2noc(C)c12 | inconclusive: -36.9% [inhibitor]
21 | O=C(Cc1ccccc1)Nc1nc(-c2ccc(F)c(F)c2)cs1 | inactive: 0.0928%
22 | O=c1[nH]c(N/N=C/c2cc3c(cc2[N+](=O)[O-])OCO3)nc2ccccc12 | inconclusive: -40.8% [inhibitor]
23 | CCN(CC(=O)NCc1cccs1)C(=O)c1ccc([N+](=O)[O-])o1 | active: -90.7%
24 | COc1ccc(C(=O)c2no[n+]([O-])c2C(=O)c2ccc(OC)cc2)cc1 | inactive: -5.15%
25 | CCN1CCN(c2ccc(S(=O)(=O)N3CCCCC3)cc2NC(=O)c2ccc([N+](=O)[O-])o2)CC1 | inconclusive: -38.4% [inhibitor]

Row | Structure (SMILES) | activity change
26 | O=C(/C=C/c1ccc(O)c([N+](=O)[O-])c1)c1ccc2ccccc2c1 | inconclusive: -69.4% [inhibitor]
27 | COc1ccccc1N(C)S(=O)(=O)c1ccc(C(=O)Nc2ccncc2)cc1 | inactive: -7.22%
28 | CCn1cnc2cc(NCc3ccc(N(C)C)cc3)ccc21 | inactive: -17%
29 | CCNc1nc(NC(C)C)nc(SCCOc2ccc(C)cc2)n1 | inactive: 0.0008%
30 | O=C(NNC(=O)C(O)(c1ccccc1)c1ccccc1)C1CC1 | inconclusive: -37.4% [inhibitor]
31 | O=C(CN1C(=O)NC2(CCCC2)C1=O)Nc1ccc(S(=O)(=O)N2CCOCC2)cc1 | inconclusive: -40.2% [inhibitor]
32 | O=C(N/N=C/c1ccc([N+](=O)[O-])o1)c1ccccc1-n1cccc1 | active: -98.6%
33 | COc1ccc(C(=O)NNC(=O)CSc2nc3c([nH]2)c(=O)n(C)c(=O)n3C)cc1 | inconclusive: -44.2% [inhibitor]
34 | COc1ccc(S(=O)(=O)N2CCc3ccccc32)cc1C(=O)NCCc1ccc(S(N)(=O)=O)cc1 | inconclusive: -30.7% [inhibitor]
35 | COc1ccc(-c2csc(Nc3ccccc3)n2)cc1 | inconclusive: -31.2% [inhibitor]
36 | Cc1ccc(S(=O)(=O)N(C)C[C@@H]2Oc3ccc(NC(=O)CCC(F)(F)F)cc3CC(=O)N([C@@H](C)CO)C[C@@H]2C)cc1 | inconclusive: -35.7% [inhibitor]
37 | COc1ccccc1OCCOCCOc1ccc(C)cc1[N+](=O)[O-] | inactive: 19%
38 | COc1ccc(C(=O)NC2=NCCS2)c(OC)c1 | inconclusive: -40.8% [inhibitor]
39 | COc1cc(CNCCO)cc(Cl)c1OCc1ccccc1Cl | inactive: -11.3%
40 | CN1C(C(=O)NCCc2cccs2)CC2Cn3c(nc4cc5ccccc5cc43)C21 (centres undefined) | inconclusive: -38% [inhibitor]
41 | CC1(C)CC[C@]2(C(=O)O)CC[C@]3(C)C(=CCC4[C@@]5(C)CC[C@H](O)C(C)(C)C5CC[C@]43C)C2C1 (some centres undefined) | inconclusive: -33.4% [inhibitor]
42 | Cc1cc(C(=O)Cn2ncc(Cl)c(Cl)c2=O)c(C)n1CC(F)(F)F | inactive: 16.6%
43 | COc1ccc(-n2ncc3c(N(C)C4CCCCC4)ncnc32)cc1 | inconclusive: -48.4% [inhibitor]
44 | COc1ccccc1OCc1ccc(C(=O)N2CCCCC2)o1 | inconclusive: -34% [inhibitor]
45 | COc1ccc(-c2[nH]c(-c3ccc(C)cc3)nc2SCC(=O)NCc2ccco2)cc1OC | inconclusive: -43.7% [inhibitor]
46 | CCOc1ccc(NC(=O)Nc2cccs2)cc1 | inconclusive: -39.6% [inhibitor]
47 | COc1ccc(C)cc1NC(=O)c1cc2c(s1)CCC2 | inconclusive: -31.1% [inhibitor]
48 | COC(=O)[C@@]12OC[C@]34[C@H]([C@@H](O)[C@@H]1O)[C@@]1(C)C(=O)C(O[C@@H]5OC(CO)[C@@H](O)[C@@H](O)[C@@H]5O)=C[C@@H](C)[C@@H]1C[C@H]3OC(=O)[C@H](OC(=O)/C=C(\C)C(C)(C)OC(C)=O)[C@@H]24 (some centres undefined) | inconclusive: -56.2% [inhibitor]
49 | NCCNC(=O)Cc1cccc(NC(=O)Cc2ccc(Nc3ncnc4c3ncn4[C@@H]3O[C@H](CO)[C@@H](O)[C@H]3O)cc2)c1 | inconclusive: -33.1% [inhibitor]
50 | O=C(Nc1ccccn1)c1cc2ccccc2o1 | inconclusive: -63.8% [inhibitor]

Row | Structure (SMILES) | activity change
51 | CCOC(=O)Cc1csc(NC(=S)NC(=O)c2ccc(C)cc2)n1 | inconclusive: -52.8% [inhibitor]
52 | Cc1cccc(NCc2nc3ccccc3n2Cc2ccccc2)c1 | inactive: -18.9%
53 | COc1cccc(-c2nc(CS(=O)(=O)CC(=O)NCCN3CCOCC3)c(C)o2)c1 | inactive: -10.3%
54 | Clc1ccc(C2=NNC(=NCc3ccc4c(c3)OCO4)SC2)cc1 | inactive: -16.8%
55 | CC(Sc1ccsc1[N+](=O)[O-])C(=O)NCc1ccco1 (centres undefined) | inconclusive: -45.5% [inhibitor]
56 | CNC[C@@H](CC1CCCCC1)NC[C@H](CC(C)C)NCCc1cccc(C(F)(F)F)c1 | inconclusive: -37.3% [inhibitor]
57 | CCOc1ccc2nc(N3CCC(C(=O)N4CCN(c5ccccn5)CC4)CC3)sc2c1 | inconclusive: -48.5% [inhibitor]
58 | CNc1nc(OCC(F)(F)F)nc(OCC(F)(F)F)n1 | inconclusive: -30.6% [inhibitor]
59 | CC(C)C(=O)c1cn(CC(=O)NCc2ccco2)c2ccccc12 | inactive: -4.92%
60 | COc1ccccc1NS(=O)(=O)c1cccc(C(=O)NCC(c2ccco2)N(C)C)c1 (centres undefined) | inactive: -5.18%
61 | CCOc1ccc2c(c1)OC1(CCC(C)C1)CC2=O (centres undefined) | inconclusive: -33.6% [inhibitor]
62 | CN(C)c1ccc(/C=C/C(=O)c2ccc(O)cc2)cc1[N+](=O)[O-] | inconclusive: -36.1% [inhibitor]
63 | CCOc1ccc2nc(-c3ccccc3)[nH]c2c1 | inconclusive: -56.2% [inhibitor]
64 | COc1cccc(C(=O)Nc2cc(C)ccc2NC(=O)COc2ccccc2)c1 | inconclusive: -31.1% [inhibitor]
65 | CC(=O)c1sc(NC(=O)c2ccc(Cl)cc2)nc1C | inconclusive: -43.9% [inhibitor]
66 | CC(C)Oc1cccc(-c2cc(C(=O)NN3CCOCC3)c3ccccc3n2)c1 | inactive: 5.13%
67 | CCSc1nnc(Nc2ccccc2)s1 | inactive: 24.1%
68 | Clc1ncc(CN2CCN(c3ccccc3)CC2)s1 | inactive: 14.9%
69 | CCc1nnc(NC(=O)c2ccc(S(=O)(=O)N(C)Cc3ccccc3)cc2)o1 | inconclusive: -32% [inhibitor]
70 | CCSc1nc(O)cc(=O)n1-c1ccc(OC)cc1 | inactive: -12%
71 | O=[n+]1c2c(n([O-])c3cc(Br)ccc31)CCCC2 | inconclusive: -51.1% [inhibitor]
72 | COc1ccc2c(c1OC)C[N+]1([O-])CCc3cc4c(cc3C1C2)OCO4 (centres undefined) | inconclusive: -33.3% [inhibitor]
73 | NC(=O)NC(=O)COC(=O)/C=C/c1cccs1 | inconclusive: -38.1% [inhibitor]
74 | Cc1cc(=O)n2nc(N3CCC(C(=O)NCc4cccc(Cl)c4)CC3)sc2n1 | inconclusive: -35.9% [inhibitor]
